Values marked as one replicate rest on one cluster of the flow cell; about a third of the high ones do not repeat.
Each sequence was assayed on ATP (assay: switch fluorescence ratio, 500 uM ATP over buffer (Cy3 cluster intensity, sum of 5 cycles each) (fold (ratio)); higher = stronger signal-on switching upon ATP binding; sequences stand for … in TCGTCGGCAGCGTCAGATGTGTATAAGAGACAGTTTTTTTTTTTTTTTTTTTTTTTTT…TC). Settings: aptamer strand: ATP DNA aptamer (quencher-CACCTGGGGGAGTATTGCGGAGGAAGG + anchor), 100 nM annealed; ATP concentration: 500 uM; one replicate.
In short: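 Clusters with intensities outside 100-1000 RFU were excluded. The remaining Cy3-labelled switching-strand clusters on a modified Illumina MiSeq flow-cell had been annealed to 100 nM quencher-labelled ATP aptamer and imaged in selection buffer, then after 15 min with 500 uM ATP at 22 °C, for five cycles separated by NaOH stripping and re-annealing. The fluorescence ratio, averaged per switch-domain sequence, is each cluster's summed target-cycle Cy3 intensity over its summed buffer-cycle Cy3 intensity.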
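Also: ATP exposure 15 min at 22 °C before imaging.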

| Sequence | switch fluorescence ratio |
| --- | --- |
| ATACAGTGGG | 1.01 |
| ATACCAGCTA | 1.07 |
| ATACCCTGTT | 1.04 |
| ATACCTAAA | 1.02 |
| ATACCTACTA | 1.23 |
| ATACGAAAAT | 1.04 |
| ATACGAATAT | 0.973 |
| ATACGCGCCA | 1.07 |
| ATACGCGTTC | 1.11 |
| ATACGCTTGG | 0.986 |
| ATACGGCACG | 1.04 |
| ATACGGGCT | 0.934 |
| ATACGGTTGG | 1.03 |
| ATACGTCAAG | 1.01 |
| ATACTACCAG | 1.07 |
| ATACTATCGT | 1.02 |
| ATACTCAGTA | 1.01 |
| ATACTGAAAC | 1.03 |
| ATACTGGACA | 1.23 |
| ATAGAACAAA | 1 |
| ATAGAATTGC | 1.03 |
| ATAGACGCGG | 0.995 |
| ATAGACGCGT | 0.948 |
| ATAGACTAAC | 1.06 |
| ATAGAGTGCA | 1.04 |

| Sequence | switch fluorescence ratio |
| --- | --- |
| ATAGATACAG | 0.985 |
| ATAGATTGGG | 0.971 |
| ATAGATTTGT | 1 |
| ATAGCACAAC | 1.55 |
| ATAGCAGCTA | 1 |
| ATAGCAGGAA | 1.07 |
| ATAGCAGGAG | 1.09 |
| ATAGCATCGG | 1 |
| ATAGCCAAAT | 0.955 |
| ATAGCGGGCA | 0.912 |
| ATAGGATAGA | 0.984 |
| ATAGGCAATG | 1.06 |
| ATAGGCTAAT | 1.01 |
| ATAGGCTTGT | 1 |
| ATAGGGACTC | 0.991 |
| ATAGGGGTAT | 0.977 |
| ATAGGGTCTA | 1.02 |
| ATAGGTATG | 0.985 |
| ATAGGTCACA | 1.03 |
| ATAGGTGCTG | 1.15 |
| ATAGGTTAAT | 1.06 |
| ATAGTAAAAT | 1.02 |
| ATAGTACTGC | 1.08 |
| ATAGTATGAC | 1.05 |
| ATAGTATTCC | 1.08 |

| Sequence | switch fluorescence ratio |
| --- | --- |
| ATAGTCTGAA | 1.02 |
| ATAGTGAGCA | 0.986 |
| ATAGTGAGTG | 0.97 |
| ATAGTGTAGA | 0.964 |
| ATAGTGTATC | 0.986 |
| ATAGTTCGTA | 0.989 |
| ATAGTTGGAA | 1.03 |
| ATAGTTGTCC | 0.966 |
| ATATAACATG | 1.01 |
| ATATAACGGC | 1.03 |
| ATATAACTCG | 0.999 |
| ATATAAGACG | 0.869 |
| ATATAAGT | 0.946 |
| ATATAATAAA | 1.02 |
| ATATAATATT | 0.964 |
| ATATAGACTT | 1.01 |
| ATATAGATG | 1.02 |
| ATATAGCTAT | 1.03 |
| ATATAGCTGT | 1.02 |
| ATATAGTCAG | 0.947 |
| ATATATAAAA | 1.02 |
| ATATATAATT | 1.02 |
| ATATATATAG | 1.02 |
| ATATATCGCC | 0.901 |
| ATATATGGCG | 0.955 |

| Sequence | switch fluorescence ratio |
| --- | --- |
| ATATCAACA | 1.02 |
| ATATCAGCGG | 0.99 |
| ATATCCCGTT | 0.995 |
| ATATCCGCGG | 1.07 |
| ATATCGGTCG | 0.968 |
| ATATCGTCTC | 0.976 |
| ATATGAACAA | 0.996 |
| ATATGATGGG | 0.991 |
| ATATGCATTT | 1 |
| ATATGCGCTA | 1.06 |
| ATATGGATAG | 1 |
| ATATGGATG | 1.06 |
| ATATGGCCCG | 0.959 |
| ATATT | 1.01 |
| ATATTAGTG | 0.947 |
| ATATTATAAC | 0.986 |
| ATATTCCGCA | 1.69 |
| ATATTGACA | 1.03 |
| ATATTGCGAT | 1.01 |
| ATATTGGATG | 0.99 |
| ATATTGTTAG | 1.01 |
| ATATTTCGGT | 0.969 |
| ATATTTGCTG | 1.02 |
| ATCAAAAAGT | 1.04 |
| ATCAAGATCT | 1.02 |
